# According to PubChem BioAssay AID588591 (National Center for Advancing Translational Sciences (NCATS), 2011):
# Among all 390,000 compounds or so, about 4,700 (1.2%) were called active. The shares of active, inactive and inconclusive entries below differ from those in the screen. Calls follow the shape of the dose curve; as a rule, active = well fitted inhibition curve with a large enough effect; inconclusive = small, poorly fitted or top-dose-only effect, or another doubt; inactive = no such curve, though single readings can be large or run the other way. A potency beside an inconclusive call is a rough fit, not a confirmed value.
# Biological target: DNA polymerase eta (Homo sapiens) (UniProt Q9Y253)
# Sequence of UniProt Q9Y253 (Q9Y253 whole entry, looked up): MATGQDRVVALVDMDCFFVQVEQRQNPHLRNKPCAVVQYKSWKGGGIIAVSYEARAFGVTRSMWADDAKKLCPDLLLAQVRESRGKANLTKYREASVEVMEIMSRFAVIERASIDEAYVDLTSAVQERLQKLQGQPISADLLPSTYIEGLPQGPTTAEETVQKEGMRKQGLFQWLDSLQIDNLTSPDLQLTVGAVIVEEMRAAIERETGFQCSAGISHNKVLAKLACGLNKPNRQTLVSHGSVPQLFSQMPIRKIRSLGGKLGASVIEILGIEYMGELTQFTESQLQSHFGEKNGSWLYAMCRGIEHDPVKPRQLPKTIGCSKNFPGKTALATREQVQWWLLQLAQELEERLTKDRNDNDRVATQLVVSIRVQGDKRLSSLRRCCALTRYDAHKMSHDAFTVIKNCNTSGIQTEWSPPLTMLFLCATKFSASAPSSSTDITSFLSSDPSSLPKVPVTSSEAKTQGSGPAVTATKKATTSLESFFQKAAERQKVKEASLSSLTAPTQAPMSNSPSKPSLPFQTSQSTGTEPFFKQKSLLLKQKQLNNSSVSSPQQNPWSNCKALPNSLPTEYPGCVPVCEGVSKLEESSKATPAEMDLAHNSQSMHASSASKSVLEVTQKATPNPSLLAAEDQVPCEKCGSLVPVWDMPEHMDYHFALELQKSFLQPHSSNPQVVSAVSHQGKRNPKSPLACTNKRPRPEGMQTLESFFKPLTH
# Assay: qHTS for Inhibitors of Polymerase Eta
# Settings: recombinant Pol eta, fluorescent DNA replication assay; series mostly up to 114 µM
# Procedure, shortened: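 Fluorescent replication assay: 50 nM final substrate added after a 15 min room-temperature compound preincubation with 10 nM enzyme. Signal taken at 0 min and again at 10 min.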
# Potency is read from the fitted curve at half-maximal effect; tags tell the direction and shape of the fitted curve.
row,Compound,Potency
1,O=C(Nc1ccc(N2CCOCC2)c(S(=O)(=O)Nc2ccccc2Cl)c1)c1ccc(=O)[nH]n1,"inconclusive: 31.6 µM [inhibitor, single point]"
2,COC(=O)c1cc(COc2ccc3c(c2)oc(=O)c2ccccc23)c(C)o1,"inconclusive: 28.2 µM [inhibitor, single point]"
3,COc1ccc(C(NC(=O)/C=C/c2ccco2)c2ccc(OC)c(OC)c2)cc1OC,"inconclusive: 15.8 µM [inhibitor, full curve, poor fit]"
4,Cc1nn2c(SCC(=O)c3cccs3)cc(C(C)(C)C)nc2c1-c1ccccc1,"inconclusive: 70.8 µM [inhibitor, partial curve]"
5,Nc1cc(Oc2ccc(Cl)cc2Cl)nc(N)n1,inactive
6,Cc1oc(-c2ccc(C(=O)NCc3ccccc3)cc2)nc1CN1CCc2ccccc21,inactive
7,CCOc1ccc(-c2ccc(/C=C3/C(=N)N4C(C)=CSC4=NC3=O)o2)c([N+](=O)[O-])c1,active: 14.1 µM
8,CCC(=O)Nc1ccc(C(=O)Cn2ncc(Cl)c(Cl)c2=O)cc1,"inconclusive: 79.4 µM [inhibitor, partial curve]"
9,CC(=O)c1c(C)[nH]c(C(=O)OCC(=O)NCc2ccc(Cl)cc2)c1C,inactive
10,Cc1ccccc1Nc1nnc(SCC(=O)NC(=O)NCc2ccco2)s1,"inconclusive: 56.2 µM [inhibitor, partial curve, poor fit]"
11,Cc1ccc(S(=O)(=O)c2nnn(-c3ccc(F)c(Cl)c3)c2N)cc1,inactive
12,Cc1cc(OCC(=O)Nc2cc(-c3nc4ncccc4o3)ccc2C)ccc1Cl,active: 79.4 µM
13,CCN=c1scc(C)n1/N=C/c1ccc(O)c(O)c1O,active: 6.31 µM
14,CSc1nnc(C)c(/C=C/Nc2ccc(F)cc2)n1,"inconclusive: 31.6 µM [inhibitor, single point]"
15,N#Cc1c(/N=C/c2ccc(-c3ccc(C(=O)O)c(Cl)c3)o2)sc2c1CCCC2,active: 22.4 µM
16,C/C(=N\NS(=O)(=O)c1ccc(Cl)c([N+](=O)[O-])c1)c1cc2ccccc2o1,"inconclusive: 39.8 µM [inhibitor, partial curve, poor fit]"
17,CCc1ccccc1NS(=O)(=O)c1ccc2[nH]cc(C(=O)N(CC)Cc3ccccc3)c(=O)c2c1,"inconclusive: 100 µM [inhibitor, partial curve, poor fit]"
18,O=C1OC=NC1=Cc1ccccc1,"inconclusive: 22.4 µM [inhibitor, partial curve, poor fit]"
19,CSc1ccccc1NC(=O)Cn1c([N+](=O)[O-])cnc1C,inactive
20,Cc1cccc(C)c1-n1c(C)cc(/C=N\NC(=O)CC(=O)NC2CCCCC2)c1C,"inconclusive: 70.8 µM [inhibitor, partial curve, poor fit]"
21,COc1ccc(Nc2nc(N)nc(CN3CCC(Cc4ccccc4)CC3)n2)cc1,"inconclusive: 100 µM [inhibitor, partial curve, poor fit]"
22,Cc1cc(S(=O)(=O)C(CNC(=O)c2ccc(F)c(F)c2)c2cccs2)ccc1F (stereo unspecified),inactive
23,Cc1nc2sc3c(c2c(=O)o1)CCC3,"inconclusive: 15.8 µM [inhibitor, partial curve, poor fit]"
24,O=C(O)C(O)c1ccco1 (stereo unspecified),active: 3.55 µM

row,Compound,Potency
1,CCCCn1c(=NC(=O)c2ccc3c(c2)OCO3)c(C#N)cc2c(=O)n3cccc(C)c3nc21,"inconclusive: 12.6 µM [inhibitor, partial curve, poor fit]"
2,CCN(CC)S(=O)(=O)c1ccc2[nH]cc(C(=O)NCCc3ccc(OC)c(OC)c3)c(=O)c2c1,"inconclusive: 39.8 µM [inhibitor, single point]"
3,O=C(COC(=O)CCC(=O)c1ccc(Cl)cc1)NCc1ccco1,active: 25.1 µM
4,Cc1cc(C)c(NC(=O)c2nc3ccccc3nc2N2CCCCC2)c(C)c1,inactive
5,Cc1ccc(CNC(=O)CN2C(=O)COc3ccc(S(=O)(=O)N4CCCCC4)cc32)o1,inactive
6,COC(=O)c1ccccc1NC(=O)c1ccc(COc2cccc3ccccc23)o1,"inconclusive: 28.2 µM [inhibitor, single point]"
7,CCCCNC(=O)C1CCC(Cn2c(=O)c3sccc3n(Cc3ccccc3)c2=O)CC1 (stereo unspecified),inactive
8,CNC(=O)COC(=O)c1cc(-c2ccco2)nc2ccccc12,active: 11.2 µM
9,COc1ccc(-c2nc3c(C(=O)NCCN(C)C)cccc3c3ccccc23)cc1,inactive
10,CSc1cccc(CN2CCC(CCC(=O)NC3CC3)CC2)c1,"inconclusive: 3.16 µM [inhibitor, partial curve, poor fit]"
11,O=C(CSc1nnc(-c2ccc(S(=O)(=O)N3CCCC3)cc2)o1)NCc1ccccc1,inactive
12,CCOc1ccc2[nH]c(=O)c(C(c3nnnn3Cc3ccco3)N3CCCC(C)C3)cc2c1 (stereo unspecified),"inconclusive: 17.8 µM [inhibitor, full curve, poor fit]"
13,Cc1ccc(NS(=O)(=O)c2ccc(N/N=C/c3ccncc3)c([N+](=O)[O-])c2)c(C)c1,"inconclusive: 56.2 µM [inhibitor, partial curve, poor fit]"
14,Cc1cc(=O)oc2cc(OCc3ccc(C(=O)OCC(=O)NC4CCS(=O)(=O)C4)cc3)ccc12 (stereo unspecified),active: 22.4 µM
15,COc1cc(/C=C2\NC(=S)NC2=O)ccc1OCc1cccc(C(=O)O)c1,active: 22.4 µM
16,CN(c1ccccc1)S(=O)(=O)c1cc(C(=O)NCc2ccco2)ccc1Cl,"inconclusive: 50.1 µM [inhibitor, partial curve, poor fit]"
17,Cc1ccsc1C=Nc1ccc(O)cc1,active: 14.1 µM
18,CCOc1ccc2oc(=O)cc(CN3CCN(C(=O)c4ccc(OC)c(OC)c4)CC3)c2c1,"inconclusive: 100 µM [inhibitor, single point]"
19,COc1ccc(C(=O)NCCN(C)C)c2nc3ccccc3cc12,"inconclusive: 31.6 µM [inhibitor, partial curve, poor fit]"
20,O=C1C=C(Nc2ccccc2)c2ccccc2C1=O,"inconclusive: 79.4 µM [inhibitor, partial curve]"
21,Cc1nc2ncnn2c(N2CCN(C(=O)Cc3cccs3)CC2)c1C,active: 79.4 µM
22,CC[C@]12c3[nH]c4ccc(Cl)cc4c3CCN1C(=O)[C@@H](CC(=O)NCc1cccc(C(F)(F)F)c1)C[C@@H]2C(=O)N1CCN(C(=O)c2ccco2)CC1,inactive
23,CCN(CC)CCCNC(=O)c1cc(-c2ccccc2)c(N2CCCCC2)s1,"inconclusive: 79.4 µM [inhibitor, partial curve, poor fit]"
24,CC1CCc2c(cc(-c3ccccc3)n2-c2ccc(C(=O)NC(C)C)cc2)C1 (stereo unspecified),inactive

row,Compound,Potency
1,Nc1nc(Cl)cc(Sc2ccc3ccccc3c2)n1,"inconclusive: 39.8 µM [inhibitor, partial curve, poor fit]"
2,CC1(C)C2CCC1(C)C(OC(=O)C[n+]1ccccc1N)C2 (stereo unspecified),"inconclusive: 100 µM [inhibitor, partial curve, poor fit]"
3,Cn1cccc1C1C(C#N)=C(N)OC2=C1C(=O)CCC2 (stereo unspecified),"inconclusive: 89.1 µM [inhibitor, single point]"
4,O=C(/C=C1\NC2(CCCC2)Cc2ccccc21)C(=O)N/N=C/c1ccc(O)c(O)c1,active: 11.2 µM
5,Cc1ccc(-n2c(=O)c3c4c(sc3n(Cc3cc(=O)n5cc(Cl)ccc5n3)c2=O)CCC4)cc1C,inactive
6,Cc1cc(C)cc(N2C(=O)CN(Cc3ccccc3)C2=S)c1,inactive
7,COc1cc2c(cc1OC)C1=NC(=O)CN1C(SCc1ccccc1C)=N2,"inconclusive: 39.8 µM [inhibitor, single point]"
8,Cc1cc(NS(=O)(=O)c2ccc(Nc3nc(-c4sc(N)nc4C)cs3)cc2)no1,active: 10 µM
9,COc1ccc2nc(-c3ccco3)c(-c3ccco3)nc2c1,active: 3.16 µM
10,O=C(Nc1ccc(Cl)cc1)N(CCCN1CCOCC1)Cc1cccs1,"inconclusive: 100 µM [inhibitor, partial curve, poor fit]"
11,COc1cc(-c2nnc(COC(=O)c3ccc(C)o3)o2)cc(OC)c1OC,"inconclusive: 31.6 µM [inhibitor, partial curve, poor fit]"
12,Cc1ccc(-c2ccc(CCC(=O)O)n2Cc2ccco2)cc1,active: 22.4 µM
13,COc1ccc(-c2ccc3c(c2)S(=O)(=O)c2cccc(C(=O)NCc4cccc(OC(F)(F)F)c4)c2C3=O)cc1OC,inactive
14,N=c1scc(-c2ccccc2)n1/N=C/c1ccco1,"inconclusive: 39.8 µM [inhibitor, partial curve, poor fit]"
15,CCOC(=O)c1ccc(N2C(=O)c3[nH]nc(-c4ccc(C)cc4)c3C2c2cccs2)cc1 (stereo unspecified),inactive
16,Cn1c(=O)c2c([nH]c(=S)n2CCCc2ccccc2)n(C)c1=O,inactive
17,Cc1cccc(N=C2NC(=O)/C(=C/c3cccnc3)S2)c1C,inactive
18,Cc1nnc(NC(=O)c2cccc(Br)c2)s1,"inconclusive: 100 µM [inhibitor, partial curve, poor fit]"
19,CC1=C(C)C(=O)N(c2ccccn2)C1=O,inactive
20,Cc1ccc(NC(=O)CSc2nnnn2C2CCCC2)cc1S(=O)(=O)N1CCOCC1,inactive
21,N#C/C(=C(/O)COC(=O)Cc1c[nH]c2ccccc12)c1nc2ccccc2[nH]1,"inconclusive: 15.8 µM [inhibitor, single point]"
22,Cc1cc(-c2nnc(SCC(=O)c3ccc(F)cc3)o2)no1,inactive
23,O=C(NC1CCCCC1)N1CCN(C2CCCCC2)CC1,"inconclusive: 79.4 µM [inhibitor, partial curve, poor fit]"
